Laboratory results reported in patent publication US20030211998A1, “Novel seventeen amino acid peptide (Peptide P) for treating ischemia and reperfusion injury” (UNIVERSITY OF KENTUCKY RESEARCH FOUNDATION, priority 2001, published 2003).

Test system: mice subjected to 1 hour focal middle cerebral arterial occlusion (MCAO) ischemia
Assay: Murine ischemia/reperfusion model: MABP, pO2, pCO2, pH, rectal temperature
Settings: post ischemia

CC[C@H](C)[C@H](NC(=O)[C@H](CO)NC(=O)[C@H](Cc1c[nH]cn1)NC(=O)[C@H](Cc1ccccc1)NC(=O)[C@H](Cc1ccccc1)NC(=O)[C@H](CC(=O)O)NC(=O)CNC(=O)[C@@H](NC(=O)[C@@H](NC(=O)[C@H](CO)NC(=O)[C@H](C)NC(=O)[C@@H](NC(=O)[C@H](CC(=O)O)NC(=O)[C@H](C)NC(=O)[C@H](Cc1ccccc1)NC(=O)[C@@H](C)NC(=O)[C@@H](N)Cc1ccc(O)cc1)C(C)C)[C@@H](C)O)[C@@H](C)CC)C(N)=O [Peptide P, Tyr-D-Ala-Phe-Ala-Asp-Val-Ala-Ser-Thr-Ile-Gly-Asp-Phe-Phe-His-Ser-Ile-NH2] was tested, and the “differences in MABP, pO2, pCO2, pH or rectal temperature versus control animals” value was “no significant differences”.
